The whole screen tested about 310,000 compounds, of which about 14,000 (4.5%) showed an effect of 50% or more. Effects have a minus sign here. Some of the results follow.
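Further: peak tail current of the secondary pulse compared with the same well before compound.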

For the assay, the target named is human ether-à-go-go-related gene (hERG) potassium channel (human, UniProt Q12809). Description: primary screen, population patch clamp on CHO cells stably expressing hERG.
Chain of human ether-à-go-go-related gene (hERG) potassium channel (Q12809 whole entry, looked up): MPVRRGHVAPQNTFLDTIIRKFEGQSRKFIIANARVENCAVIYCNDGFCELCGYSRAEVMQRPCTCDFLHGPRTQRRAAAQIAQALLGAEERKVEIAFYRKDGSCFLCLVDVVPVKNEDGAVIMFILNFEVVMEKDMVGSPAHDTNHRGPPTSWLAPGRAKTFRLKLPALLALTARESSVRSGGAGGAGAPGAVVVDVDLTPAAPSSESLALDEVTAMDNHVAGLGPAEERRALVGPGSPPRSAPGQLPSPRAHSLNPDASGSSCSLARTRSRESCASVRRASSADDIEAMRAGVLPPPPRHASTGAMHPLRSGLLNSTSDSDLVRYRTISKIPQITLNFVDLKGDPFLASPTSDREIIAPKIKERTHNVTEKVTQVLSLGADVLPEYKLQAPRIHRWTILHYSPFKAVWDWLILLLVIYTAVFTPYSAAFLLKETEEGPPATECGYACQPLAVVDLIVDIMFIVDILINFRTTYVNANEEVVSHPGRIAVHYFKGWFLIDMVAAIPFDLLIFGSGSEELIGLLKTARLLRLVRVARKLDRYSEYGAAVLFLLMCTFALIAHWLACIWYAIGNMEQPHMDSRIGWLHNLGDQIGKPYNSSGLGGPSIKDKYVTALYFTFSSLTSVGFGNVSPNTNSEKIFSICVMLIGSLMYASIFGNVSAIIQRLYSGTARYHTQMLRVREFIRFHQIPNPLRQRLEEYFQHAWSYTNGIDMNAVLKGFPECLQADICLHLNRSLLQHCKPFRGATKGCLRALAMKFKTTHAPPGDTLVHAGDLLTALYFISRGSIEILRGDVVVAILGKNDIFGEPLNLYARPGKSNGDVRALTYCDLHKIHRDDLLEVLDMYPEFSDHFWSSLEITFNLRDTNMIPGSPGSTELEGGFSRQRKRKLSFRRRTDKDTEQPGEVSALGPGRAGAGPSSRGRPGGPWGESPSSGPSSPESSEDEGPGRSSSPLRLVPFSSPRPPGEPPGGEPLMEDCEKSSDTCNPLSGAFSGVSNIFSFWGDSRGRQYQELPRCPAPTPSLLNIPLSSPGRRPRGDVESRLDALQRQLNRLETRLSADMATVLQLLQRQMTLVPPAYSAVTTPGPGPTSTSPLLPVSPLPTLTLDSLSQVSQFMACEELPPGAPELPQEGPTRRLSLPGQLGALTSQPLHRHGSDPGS
Turning to `COc1cc(C(=O)Nc2c(C)cc(C)cc2C)c(-n2cnnn2)cc1OC`, the “hERG current change (%, negative = inhibition) at 10uM” value is reported as -14.8%. To `CCCC(C(=O)Nc1cc(S(=O)(=O)N2CCOCC2)ccc1OC)c1ccccc1` (stereo not drawn) belongs 21.9%; to `COc1ccc(-n2c(=O)c3c4c(sc3n3c(=S)[nH]nc23)CCCC4)cc1`, 8.97%. Consider `COc1ccc(-c2noc(CSc3nc(N)cc(=O)[nH]3)n2)cc1`, for which the “hERG current change (%, negative = inhibition) at 10uM” value is 0.145%. As for `Cc1nc([N+](=O)[O-])c(Sc2nc3ccc([N+](=O)[O-])cc3[nH]2)n1Cc1ccccc1`, the “hERG current change (%, negative = inhibition) at 10uM” value was -48%. To `O=C1c2ccccc2C(=O)N1CCOc1cccc(Br)c1` belongs 15.9%; to `CCc1ccc(CN(C(=O)c2cccs2)C2CCS(=O)(=O)C2)cc1` (stereo not drawn), -39.4%. Take `CC(C)N1C(=O)NC2(c3ccccc3)N(C)C(=O)N(C)C12c1ccccc1` (stereo not drawn): the “hERG current change (%, negative = inhibition) at 10uM” value is given as -6.16%. To `CC(=O)Oc1ccc(C(=O)Nc2cccc(C(=O)NC(C)(C)C)c2)cc1` belongs 23.4%; to `CCOC(=O)C1CCN(C(=O)Cc2ccc(OC)c(OC)c2)CC1`, -1.71%.

Consider `COc1ccc(F)cc1C(=O)C1CCCN(C(=O)CCN2CCCCO2)C1` (stereo not drawn), for which the “hERG current change (%, negative = inhibition) at 10uM” value is recorded as 5.56%. To `CC1CCc2[nH]c3ccc(C(=O)N(C)CC(=O)Nc4ccc(F)cc4)cc3c2C1` (stereo not drawn) belongs -2.52%; to `Cc1ccccc1NC(=O)c1ccc(CN2CCc3ccccc3C2)cc1`, -16.4%. As for `Cc1ccccc1Cn1c(=O)n(CC2CCC(C(=O)NCCc3ccccc3)CC2)c(=O)c2ccccc21` (stereo not drawn), the “hERG current change (%, negative = inhibition) at 10uM” value was found to be 8.83%. Regarding `O=C(NCCc1ccccc1)C1CCN(S(=O)(=O)c2ccc(-c3nn[nH]n3)cc2)CC1`, the “hERG current change (%, negative = inhibition) at 10uM” value was -18.7%. To `CN1CCN(C(=O)c2ccc(CNS(=O)(=O)c3cccc(Cl)c3)cc2)CC1` belongs -17.1%; to `O=C(Cc1ccccc1[N+](=O)[O-])NC1CC1`, 11.3%. As to `O=C(OCc1ccccc1)/C(=C/c1ccc(Cl)cc1)NC(=O)c1ccccc1Cl`, the “hERG current change (%, negative = inhibition) at 10uM” value was 5.56%. `O=C(NCCc1ccc(Cl)cc1)c1cc(S(=O)(=O)N2CCCCC2)c[nH]1`: the “hERG current change (%, negative = inhibition) at 10uM” value turned out to be 1.19%. With `COC(=O)c1ccc2c(=O)n(CCCCCC(=O)NCc3ccccc3)c(=O)[nH]c2c1`, the “hERG current change (%, negative = inhibition) at 10uM” value is given as -6.33%. To `COc1ccc(CNC(=O)C2CSC(=O)C2)cc1` (stereo not drawn) belongs 1.15%; to `O=C1CC(C(=O)O)(c2ccccc2)c2cccc(F)c21` (stereo not drawn), -2.44%. With `CCc1cc(C(=O)NC2CCCN(Cc3ccccc3F)C2)n(C)n1` (stereo not drawn), the “hERG current change (%, negative = inhibition) at 10uM” value is -11.6%. Turning to `Cc1cc(C)n2c(SCC(=O)Nc3ncc(C(F)(F)F)cc3Cl)nnc2n1`, the “hERG current change (%, negative = inhibition) at 10uM” value is -17.1%.

`NS(=O)(=O)c1ccc(N/N=C/c2ccccc2Br)cc1`: the “hERG current change (%, negative = inhibition) at 10uM” value was 30.4%. To `O=C(CN1C(=O)c2ccccc2C1=O)NN1C(=O)c2ccccc2C1=O` belongs 1.18%. To `N=c1c(S(=O)(=O)c2ccc(Cl)cc2)cc2c(=O)n3ccccc3nc2n1Cc1cccnc1` belongs -35.5%; to `Nc1nc(-c2ccc3ccccc3c2)cs1`, 1.6%; to `Cc1ccc(S(=O)(=O)n2nc(C)cc2C)cc1`, 13.5%. To `CCCCn1c(-c2ccco2)nc2ccccc2c1=O` belongs -12.2%; to `O=C(Nc1ccc(Cl)c(Cl)c1)OCc1cccnc1`, 19.7%; to `NC12NC(=O)C3(O)C4C5CC(C6C5C3C61)C42` (stereo not drawn), 13.5%. In the case of `CC(c1ccccc1)N1CC(C(=O)N2CCN(c3ccc(F)cc3)CC2)CC1=O` (stereo not drawn), the “hERG current change (%, negative = inhibition) at 10uM” value was -65.3%. To `COc1ccc(CCNC(=O)c2cc(-c3ccccn3)nc3ccccc23)cc1` belongs -31%; to `N#Cc1c(N2CCCC2)ccc(Br)c1Cl`, 9.09%; to `Cc1cccc(NC(=O)C2CCN(C(=O)N3CCOc4ccccc43)CC2)c1C`, 3.61%. As for `O=C1C2C3C=CC(CO)(O3)C2C(=O)N1c1ccc(-c2ccccc2)cc1` (stereo not drawn), the “hERG current change (%, negative = inhibition) at 10uM” value is reported as -2.64%.

Regarding `O=C(CSc1nnc(SCc2cccc3ccccc23)s1)N/N=C/c1c[nH]c2ccccc12`, the “hERG current change (%, negative = inhibition) at 10uM” value was -6.02%. `CC(C)NC(=O)[C@H](CSCc1ccccc1)N1Cc2ccccc2C1=O`: the “hERG current change (%, negative = inhibition) at 10uM” value is on record as -40%. With `CC(C)(C)C(=O)NNC(=O)c1cc(C(C)(C)C)nn1Cc1ccccc1`, the “hERG current change (%, negative = inhibition) at 10uM” value is recorded as -0.263%. On to `Cc1ccc(OCc2nnc(SCC(=O)N3C(C)CCCC3C)o2)cc1` (stereo not drawn), for which the “hERG current change (%, negative = inhibition) at 10uM” value is 5.56%.

With `COc1ccc(C(C(=O)NCc2ccccc2)N(C(=O)c2snc(C(N)=O)c2N)C2CCCC2)cc1O` (stereo not drawn), the “hERG current change (%, negative = inhibition) at 10uM” value was -39.5%. To `C(=N\N(Cc1ccccc1)c1ccccc1)/c1cccnc1` belongs 7.86%; to `O=C(OCC(=O)N(C1CCCCC1)C1CCCCC1)c1ccco1`, 6.95%. For the compound `Cc1cc(C)n2nc(C(=O)Nc3cccnc3)nc2n1`, the “hERG current change (%, negative = inhibition) at 10uM” value was -14.1%. Consider `CCOc1ccc(N2C(N)=NC(N)=NC2(C)C)cc1.Cl`, for which the “hERG current change (%, negative = inhibition) at 10uM” value is on record as -4.18%.

For `Cc1[nH]c(-c2ccc(F)cc2)cc1C(=O)N1CCN(c2ccc(Cl)cc2)CC1`, the “hERG current change (%, negative = inhibition) at 10uM” value is on record as -13.4%. To `O=C1CN(C(=O)NCC(=O)N2CCCC2)c2ccccc2N1` belongs 20.4%; to `CCN(CC#CCC(O)(c1ccccc1)c1ccccc1)C(C)C.Cl`, -19.5%.

In the case of `Cc1ccc(/C=C/C(=O)Nc2ccc(S(N)(=O)=O)cc2)o1`, the “hERG current change (%, negative = inhibition) at 10uM” value turned out to be 26%. For the compound `Cc1ccc(NS(=O)(=O)c2cc([N+](=O)[O-])ccc2NNC(=S)Nc2cccc(Cl)c2)c(C)c1`, the “hERG current change (%, negative = inhibition) at 10uM” value came out at 26%. As for `CCN1C(=O)CC(N2CCN(c3ccc(C(=O)c4ccncc4)cc3)CC2)C1=O` (stereo not drawn), the “hERG current change (%, negative = inhibition) at 10uM” value is -12.3%.

For `COc1ccc(CC(=O)Nc2c3c(nn2C(C)(C)C)CS(=O)(=O)C3)cc1OC`, the “hERG current change (%, negative = inhibition) at 10uM” value is 1.84%. To `O=C(Cc1ccc(F)cc1)Nc1nccs1` belongs 9.75%; to `COc1cc2c(cc1OC)C(C(=O)NC(C)c1ccccc1)CC(=O)N2` (stereo not drawn), 10.4%; to `Cc1cc(N2C3CCC2CC(O)(c2ccc(F)cc2)C3)nc(-c2ccccc2)n1` (stereo not drawn), 8.4%.

On to `O=C(NCc1ccccc1)NC(=O)c1ccccc1`, for which the “hERG current change (%, negative = inhibition) at 10uM” value is listed as -11.1%.

On to `Cc1c(-n2c(SCC(=O)C(C)(C)C)nc3ccccc3c2=O)c(=O)n(-c2ccccc2)n1C`, for which the “hERG current change (%, negative = inhibition) at 10uM” value amounted to 5.58%.

Consider `N#C/C(=C(/O)c1ccc([N+](=O)[O-])s1)c1nc2ccccc2[nH]1`, for which the “hERG current change (%, negative = inhibition) at 10uM” value was 19.7%.

Take `Cc1cccc(NC(=O)COC(=O)CCc2ccc(S(=O)(=O)N3CCOCC3)cc2)c1C`: the “hERG current change (%, negative = inhibition) at 10uM” value was determined as 8.89%. To `FC(F)(F)c1cccc(N2CCN(Cc3ccoc3)CC2)c1` belongs -60.4%; to `O=C(CSc1nc2ccccc2c(=O)n1-c1ccc(F)c(Cl)c1)Nc1cccc(S(=O)(=O)N2CCOCC2)c1`, 21.8%; to `COc1ccc(-c2c(C)nn(-c3ccccc3)c2N)cc1`, -19.9%.

Take `COC(=O)c1ccc(CNCC(=O)Nc2ccc(C(=O)OC)cc2)cc1`: the “hERG current change (%, negative = inhibition) at 10uM” value is 1.47%. To `CN(C)c1ccc(CC2C(=O)Nc3ccccc32)cc1` (stereo not drawn) belongs -10%; to `Cc1noc(/C=C/N(C)C)c1S(=O)(=O)N1CCCC(C(=O)Nc2ccccc2F)C1` (stereo not drawn), 5.26%; to `COc1ccc(S(=O)(=O)N2CCOC2CNC(=O)C(=O)NCCN(C)C)cc1` (stereo not drawn), 13.2%. To `O=C(c1ccc(Br)cc1)c1cc([N+](=O)[O-])ccc1N1CCOCC1` belongs -30.7%; to `COc1cc(N(C)C)c([N+](=O)[O-])cc1C(=O)N1CCOCC1`, 30.2%. To `Cc1occc1C(=O)NNC(=O)C(c1ccccc1)c1ccccc1` belongs 19.7%. For the compound `O=C(OCc1nnc(-c2cccs2)o1)c1cccnc1Cl`, the “hERG current change (%, negative = inhibition) at 10uM” value was 4.2%. To `COc1ccc(C(=O)NC(C)c2ccncc2)cc1S(=O)(=O)N(C)Cc1ccccc1` (stereo not drawn) belongs -61%; to `O=C(CN1CCCC1)N1c2ccccc2Sc2ccccc21`, -10.1%; to `CCOc1ccc(-n2c(SCC(N)=O)nnc2-c2ccco2)cc1`, -1.15%.

Consider `CC(C)c1nnc(NC(=O)c2cccnc2)s1`, for which the “hERG current change (%, negative = inhibition) at 10uM” value is 10.7%. On to `O=[N+]([O-])c1ccc(C[n+]2cc(-c3ccccc3)n3c2CCCCC3)cc1.[Br-]`, for which the “hERG current change (%, negative = inhibition) at 10uM” value was -35.3%. To `COc1ccc(CCC(=O)Nc2nc(C)c(C(=O)N(C)C)s2)cc1` belongs -2.23%; to `COc1cc(/C=N/N2CCN(C3c4ccccc4-c4ccccc43)CC2)ccc1O`, -0.366%; to `CC(C(=O)N1c2ccccc2CCc2ccccc21)n1nnc(-c2ccc(N(C)C)cc2)n1` (stereo not drawn), -3.29%. On to `NC[C@H](Cc1ccccc1)NCCCCC1CCCCC1`, for which the “hERG current change (%, negative = inhibition) at 10uM” value is reported as 11.3%. To `O=C(NC1CCCCC1)C1CCN(c2ncccn2)CC1` belongs 8.05%; to `O=C(CCc1ccccc1)Nc1ccc(S(=O)(=O)Nc2nccs2)cc1`, -6.34%. Turning to `COC(=O)C1=C(c2ccc(S(C)(=O)=O)cc2)C[C@@H]2CC[C@H]1N2C`, the “hERG current change (%, negative = inhibition) at 10uM” value was 0.0714%. As to `CC1(C)CC(C)(O)P(=O)(c2ccccc2)O1` (stereo not drawn), the “hERG current change (%, negative = inhibition) at 10uM” value is recorded as -6.77%. On to `CN(C)S(=O)(=O)c1ccc(Cl)c(NC(=O)CN2CCCCCC2)c1`, for which the “hERG current change (%, negative = inhibition) at 10uM” value is recorded as -24.6%.

On to `O=S(=O)(NC1CCCC1)c1cc(F)ccc1F`, for which the “hERG current change (%, negative = inhibition) at 10uM” value was -8.75%. To `CC1CCCCN1C(=O)CSc1nnc2c(n1)[nH]c1ccc(F)cc12` (stereo not drawn) belongs 8.32%.

The values are drawn from article PMC4336329 (PLoS ONE, 2015).
